Measurements: publication PMC6338662
Residue numbers refer to the chain shown, from its start. Results are given in words; binding and its absence hold for the method and conditions named. In cells and extracts the contact can be indirect. Some entries that bind do so weakly or less than the wild type. Sequences can lack the tags named with a protein.

Amino acid sequences for entries named in this document (tags omitted).
UniProt Q9UM11: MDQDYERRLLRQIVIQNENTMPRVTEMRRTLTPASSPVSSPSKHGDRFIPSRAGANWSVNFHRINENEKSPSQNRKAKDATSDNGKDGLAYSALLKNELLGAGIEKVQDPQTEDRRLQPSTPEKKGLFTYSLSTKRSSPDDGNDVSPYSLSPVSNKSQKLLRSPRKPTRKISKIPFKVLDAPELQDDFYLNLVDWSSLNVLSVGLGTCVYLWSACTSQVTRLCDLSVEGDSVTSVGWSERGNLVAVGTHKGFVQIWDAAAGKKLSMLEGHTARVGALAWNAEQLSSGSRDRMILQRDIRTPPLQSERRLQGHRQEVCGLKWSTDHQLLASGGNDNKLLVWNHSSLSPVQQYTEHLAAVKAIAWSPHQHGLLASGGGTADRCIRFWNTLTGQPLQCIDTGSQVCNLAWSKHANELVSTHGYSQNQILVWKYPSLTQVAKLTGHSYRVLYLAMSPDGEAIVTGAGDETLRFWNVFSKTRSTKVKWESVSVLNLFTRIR

What was measured:
Test in all cases: pull-down; GFP or GFP–MCPH1 variants immunoprecipitated from HEK293 lysate and held on GFP-Trap beads, incubated 3 h at 4°C with HEK293 cell extract containing FLAG–CDH1 (or CDH1 fragments) in NETN buffer (50 mM Tris pH 7.6, 150 mM NaCl, 1 mM EDTA, 1% NP-40); washed 3 times in TBST; Western blot; only the target purified
GFP–MCPH1 1–391 (human) = target: T1, GFP–MCPH1 1–391 (human) (UniProt Q8NEM0)
T1 sequence: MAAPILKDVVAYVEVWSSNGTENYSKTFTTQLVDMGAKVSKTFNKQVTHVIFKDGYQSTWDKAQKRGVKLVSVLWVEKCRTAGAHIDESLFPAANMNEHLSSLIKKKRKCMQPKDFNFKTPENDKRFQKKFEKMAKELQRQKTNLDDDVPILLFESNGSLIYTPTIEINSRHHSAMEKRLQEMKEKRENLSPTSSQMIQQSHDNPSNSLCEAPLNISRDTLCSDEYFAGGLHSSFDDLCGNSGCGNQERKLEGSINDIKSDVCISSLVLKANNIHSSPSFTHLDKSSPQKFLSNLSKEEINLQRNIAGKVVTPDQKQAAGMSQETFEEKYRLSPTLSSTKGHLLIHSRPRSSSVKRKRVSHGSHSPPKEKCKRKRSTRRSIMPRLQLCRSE

[1] = target: T2, GFP–MCPH1-L S769E (human) (UniProt Q8NEM0)
T2 sequence: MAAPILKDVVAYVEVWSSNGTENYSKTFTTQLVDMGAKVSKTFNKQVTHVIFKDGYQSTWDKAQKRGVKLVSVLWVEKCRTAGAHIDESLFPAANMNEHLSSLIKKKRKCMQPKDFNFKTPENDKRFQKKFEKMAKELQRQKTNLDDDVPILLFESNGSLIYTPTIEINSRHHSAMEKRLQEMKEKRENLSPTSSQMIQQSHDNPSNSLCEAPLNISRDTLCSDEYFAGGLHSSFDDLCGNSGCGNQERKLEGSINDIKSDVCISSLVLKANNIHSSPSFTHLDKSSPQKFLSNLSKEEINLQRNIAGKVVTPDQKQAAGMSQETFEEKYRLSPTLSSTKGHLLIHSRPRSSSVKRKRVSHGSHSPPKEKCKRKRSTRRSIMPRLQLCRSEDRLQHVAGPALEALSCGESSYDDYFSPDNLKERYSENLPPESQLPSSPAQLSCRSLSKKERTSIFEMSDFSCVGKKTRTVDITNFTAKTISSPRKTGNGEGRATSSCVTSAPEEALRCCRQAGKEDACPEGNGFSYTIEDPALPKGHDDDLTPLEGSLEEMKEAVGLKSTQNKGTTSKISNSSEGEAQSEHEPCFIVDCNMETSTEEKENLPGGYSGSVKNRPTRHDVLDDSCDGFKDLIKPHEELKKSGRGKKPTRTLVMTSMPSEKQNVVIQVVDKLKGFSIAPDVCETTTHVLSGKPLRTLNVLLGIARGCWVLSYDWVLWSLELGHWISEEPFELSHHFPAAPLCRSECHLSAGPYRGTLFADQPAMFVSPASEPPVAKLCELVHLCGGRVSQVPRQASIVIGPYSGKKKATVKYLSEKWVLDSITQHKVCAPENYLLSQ

[2] = target: T3, GFP–MCPH1-L S769A (human) (UniProt Q8NEM0)
T3 sequence: T2 sequence with E769A

[3] = target: T4, GFP–MCPH1-L T754A (human) (UniProt Q8NEM0)
T4 sequence: T2 sequence with T754A, E769S

[4] = target: T5, GFP–MCPH1-L (microcephalin-1, long isoform, 835 aa) (human) (UniProt Q8NEM0)
T5 sequence: T2 sequence with E769S

binding (GFP–MCPH1 1–391 (human)): no binding | binding [1]: binds | binding [2]: binds | binding [3]: binds | binding [4]: binds
Substance: FLAG–CDH1 (from UniProt Q9UM11 1-496)
